Data reported in PubChem BioAssay AID1345083 (National Center for Advancing Translational Sciences (NCATS), 2018).
Hit rate of the full screen: of about 94,000 compounds, about 6,200 (6.6%) were called active. Inconclusive results, whose numbers are uncertain, are shown with a selection of clear calls. The call rests on the fitted dose curve; in most records, active means well fitted inhibition curve with a large enough effect; inconclusive means small, poorly fitted or top-dose-only effect; inactive means flat fitted curve, though single readings scatter. Where the call is inconclusive, the potency comes from a doubtful curve fit.

assay: Cytotoxic Profiling in HEK 293 Cell Line of Diverse Libraries Using Quantitative High-Throughput Screening; details: HEK 293 viability, ATP luminescence (CellTiter-Glo), 48-72 h; series mostly up to 115 µM; further: nearly all actives have a fitted effect of over 60% in size
Summary of the method: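 Read-out: CellTiter-Glo ATP luminescence. Cells: HEK 293, 250 cells/well. Exposure: 48 or 72 hr, 37 degree Celsius.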
Potency means the concentration at half of the fitted maximal effect; tags describe the fitted curve by direction and shape.

Structure (SMILES)	Potency
CN(C)c1cc(=O)c2ccnc(-c3ccc(N4CCOCC4)cc3)c2o1	inactive
CCOc1ccccc1NC(=O)Cn1c(N2CCCCC2)nc(C)c(C)c1=O	inconclusive: 50.1 µM [inhibitor, partial curve, poor fit]
COCCNC(=O)[C@H]1C[C@H](Oc2ccccc2)CN1Cc1sccc1C	inconclusive: 31.6 µM [inhibitor, partial curve]
COC(=O)c1ccc2nc(C[C@@H]3C[C@@H](C(C)C)[C@H](CN)C=C3C)[nH]c2c1	inconclusive: 70.8 µM [inhibitor, full curve, poor fit]
O=S(=O)(N[C@H]1CO[C@H]2[C@@H]1OC[C@@H]2Nc1nccc(-c2ccc3c(c2)OCO3)n1)c1ccc2ccccc2c1	inconclusive: 22.4 µM [inhibitor, full curve, poor fit]
CCC(=O)N1CCc2sc(C(=O)N3CCN(c4cccc(Cl)c4)CC3)cc2C1	inconclusive: 31.6 µM [inhibitor, partial curve, poor fit]
CCOC(=O)c1ccc(NC(=O)Cn2nc3c(cc2=O)CCCCC3)cc1	inconclusive: 89.1 µM [inhibitor, single point]
Cc1cccc(OCCc2noc(C3CCCCN3C(=O)Nc3ccccc3)n2)c1 (stereo not drawn)	inconclusive: 50.1 µM [inhibitor, partial curve, poor fit]
CN1CCC(OC2CCN(S(=O)(=O)c3cccc(Br)c3)CC2)CC1	inconclusive: 79.4 µM [inhibitor, single point]
Cc1ccc(C)c(-c2cc3c(=O)n(CCNC(=O)c4ccc5ccccc5n4)ccn3n2)c1	active: 35.5 µM
COc1ccc(CN2CCCC3(CNc4ccccc4[S+](=O)([O-])N3)C2)cc1 (stereo not drawn)	inconclusive: 28.2 µM [inhibitor, full curve]
O=C1OCC2(CCN(Cc3ccc(F)c(Cl)c3)C2)N1Cc1ccccn1 (stereo not drawn)	inconclusive: 112 µM [inhibitor, single point]
O=C(CCc1ccnc(N2CCCC2)c1)N1CCN(c2ccccc2)CC1	inconclusive: 50.1 µM [inhibitor, partial curve, poor fit]
COc1ccc(C(=O)N2C(C(=O)NCc3ccco3)COC23CCN(C(=O)CC(C)(C)C)CC3)cc1 (stereo not drawn)	inconclusive: 89.1 µM [inhibitor, single point]
Cn1cc(CN2CCCC2c2ccccn2)c(-c2ccc(Oc3ccccc3)cc2)n1 (stereo not drawn)	inconclusive: 50.1 µM [inhibitor, partial curve, poor fit]
O=C(c1ccccc1Cl)N1CCn2c(nn(-c3ccc(C(F)(F)F)cc3)c2=O)C1	inconclusive: 50.1 µM [inhibitor, partial curve, poor fit]
Cc1ccsc1C(=O)N1CCCC(n2cc(-c3nc(C4CC4)no3)nn2)C1 (stereo not drawn)	inconclusive: 39.8 µM [inhibitor, partial curve]
COc1ccc(C(=O)NC2CCN(c3cc(-c4ccc(Cl)cc4)[nH]n3)C2)cn1 (stereo not drawn)	inconclusive: 50.1 µM [inhibitor, partial curve, poor fit]
CCn1ncc(CN2C[C@@H](CO)[C@H](c3ccncc3)C2)c1C	inconclusive: 100 µM [inhibitor, single point]
N#Cc1ccccc1CN1CCNc2nc(CNc3ccc(F)cc3)n(Cc3ccccc3)c2C1=O	inconclusive: 44.7 µM [inhibitor, partial curve]
Cc1ccc(-n2nc3n(c2=O)CCN(C(=O)c2ccc(C(F)(F)F)cc2)C3)cc1	inactive

Structure (SMILES)	Potency
COCC1CN(C(=O)c2ccc(C#N)cc2)CC12CCOCC2 (stereo not drawn)	inactive
COc1ccc(C(=O)N2CCn3c(nn(-c4ccc(Cl)cc4)c3=O)C2)cc1	inactive
CCOc1ccccc1CN1CCC2(CCN([S+](=O)([O-])c3cccs3)CC2)Oc2ccccc21	inactive
COc1cccc(CCNC(=O)c2c(C)noc2-c2ccco2)c1	inconclusive: 79.4 µM [inhibitor, partial curve, poor fit]
Cc1ccc(CN2CCC([C@@H]3CNC[C@H]3CO)CC2)s1	inactive
O=C(Cn1nc2c(cc1=O)CCCCC2)Nc1cccc(C(F)(F)F)c1	inconclusive: 79.4 µM [inhibitor, partial curve]
Cc1ccccc1C(=O)N1CCC2(CC1)C(=O)N(c1cccc(F)c1)C2c1ccccc1 (stereo not drawn)	active: 25.1 µM
O=C(Cn1cccc1-c1nc(-c2ccc(F)cc2)no1)NCCC1=CCCCC1	inconclusive: 70.8 µM [inhibitor, partial curve]
C[C@@H](NC(=O)c1ccccc1)c1c(-c2ccc(F)cc2)noc1C(=O)O	inactive
O=S(=O)(c1ccc2c(c1)CCCC2)N1CCCC(Cn2cnc3cccnc32)C1 (stereo not drawn)	inconclusive: 44.7 µM [inhibitor, partial curve, poor fit]
Cc1ccc(C(=O)N2CCCC2C(=O)N2CCC3(CC2)CC(=O)Nc2ccccc2O3)cc1 (stereo not drawn)	inactive
Cc1nn(-c2ccccc2)c2c1C(C(C)C)N(C1CCN(C(=O)Cc3ccccn3)CC1)C2=O (stereo not drawn)	inconclusive: 56.2 µM [inhibitor, partial curve, poor fit]
COc1ccccc1C(=O)Nc1cccc(-c2nnc3n2CCCC3)c1	inactive
CCC1=C(C(=O)OC)C(c2ccccc2OC)N2C(CC(=O)N3CCCCC3C)=CSC2=N1 (stereo not drawn)	inconclusive: 44.7 µM [inhibitor, partial curve, poor fit]
O=C(NCc1cn[nH]c1-c1ccc(F)cc1)C1COc2ccccc2C1 (stereo not drawn)	inconclusive: 89.1 µM [inhibitor, single point]
O=C(NCc1cccc(Cl)c1)c1ccc2nnc(-c3cccc(C(F)(F)F)c3)n2c1	inconclusive: 31.6 µM [inhibitor, partial curve, poor fit]
COc1ccc2ccc(OCc3nc(C(=O)NC(C)c4n[nH]c(C)n4)co3)cc2c1 (stereo not drawn)	active: 44.7 µM
COc1ccc(C(CC(=O)NCCC(C)C)c2c[nH]c3ccccc23)c(OC)c1 (stereo not drawn)	inconclusive: 50.1 µM [inhibitor, partial curve, poor fit]
CNC(=O)CCn1ncc2cc(OC3CCc4cccc(-c5ccccc5)c43)ccc21 (stereo not drawn)	inconclusive: 39.8 µM [inhibitor, partial curve, poor fit]
O=C(Nc1cc(-c2cccnc2)nn1-c1ccccc1)c1ccccc1F	inconclusive: 50.1 µM [inhibitor, partial curve, poor fit]
CC(C)c1ccc(C(=O)N2CC3CC(C2)[C@H]2CCCC(=O)N2C3)cc1 (stereo partly drawn)	inactive

Structure (SMILES)	Potency
CCOc1ccccc1CNC(=O)c1nnn2cc(C)[nH]c(=O)c12	inactive
O=C(CC1=C2CCCCC2NC1=O)Nc1ccccc1F (stereo not drawn)	inconclusive: 100 µM [inhibitor, single point]
Clc1ccccc1C1(c2ccnc(-c3ccccn3)n2)CCNCC1	inconclusive: 50.1 µM [inhibitor, partial curve, poor fit]
Cc1nn(C)c(C)c1-c1ccnc(NCC2CC(=O)N(C3CCCC3)C2)n1 (stereo not drawn)	inconclusive: 89.1 µM [inhibitor, single point]
O=C(CN1C(=O)C(c2ccccc2)=NC12CCCCCC2)NC1CCCCC1	inconclusive: 44.7 µM [inhibitor, partial curve, poor fit]
O=C(c1ccc2nnc(-c3cc[nH]c3)n2c1)N1CCOCC1	inactive
COC(=O)c1sc(NC(=O)CC[C@H]2NC(=O)c3ccccc3NC2=O)nc1C	inactive
Cc1ccc([S+](=O)([O-])N2CCCC(C(=O)N3CCC(c4nc5ncccc5[nH]4)CC3)C2)cc1 (stereo not drawn)	active: 50.1 µM
COC(=O)C1=C(C)N=C2SC=C(CC(=O)NCc3ccccc3)N2C1c1ccccc1C (stereo not drawn)	active: 44.7 µM
COc1ccc(C(=O)N2CCC3(CC2)NC(=O)N(Cc2ccc(Cl)cc2)C3=O)cc1	inconclusive: 50.1 µM [inhibitor, partial curve, poor fit]
O=C(NCCNC(=O)c1ccccn1)c1ccc(-c2cccc(C(F)(F)F)c2)cc1	inconclusive: 50.1 µM [inhibitor, partial curve, poor fit]
COCCCNC(=O)C1CCCN1Cc1cccc(-c2cccc(OC)c2)c1 (stereo not drawn)	inconclusive: 44.7 µM [inhibitor, partial curve, poor fit]
Cc1cc(C(=O)N2CCOC(CC(c3ccccc3)c3ccccc3)C2)no1 (stereo not drawn)	inconclusive: 39.8 µM [inhibitor, partial curve, poor fit]
CN1CCCCCC(O)c2cc(C(=O)NC3CCN(Cc4ccccc4)CC3)ccc21 (stereo not drawn)	active: 11.2 µM
COc1cccc(CNC(=O)C2CCc3nnc(-c4cccc(C(F)(F)F)c4)n32)c1 (stereo not drawn)	inconclusive: 10 µM [inhibitor, full curve, poor fit]
O=C(c1ccccc1Cl)N1CCC2(CC1)NC(=O)N(Cc1ccc(F)cc1)C2=O	inconclusive: 44.7 µM [inhibitor, partial curve, poor fit]
COc1ccccc1CN1CC(c2noc(C3CCCCC3)n2)CC1=O (stereo not drawn)	inconclusive: 79.4 µM [inhibitor, partial curve]
COc1ccc(Cn2c(=O)c(C(=O)N3CCN(Cc4ccccc4)CC3)nc3cccnc32)cc1	inconclusive: 50.1 µM [inhibitor, partial curve, poor fit]
CC(=O)NCC(=O)N1Cc2ccccc2CC2(CCN(CC3CCOCC3)CC2)C1	inactive
O=C(Cc1ccccc1)Nc1ccc([C@@H](O)[C@H]2COCC(=O)N2CC2CC2)cc1	inactive
COc1ccc2[nH]c3c(c2c1)CCN(C)C31CCN(C(=O)C2CCC2)CC1	inconclusive: 89.1 µM [inhibitor, single point]
